# Test results: PubChem BioAssay AID588855 (National Center for Advancing Translational Sciences (NCATS), 2011)
# “And” between values parts separate entries of the source, which are not always exact repeats. Identical values can stand only once. About 5,000 (1.2%) of roughly 410,000 compounds were called active. Inconclusive results, whose numbers are uncertain, are shown with a selection of clear calls. Calls come from the whole dose curve; as a rule, active = well fitted inhibition curve with a large enough effect; inconclusive = small, poorly fitted or top-dose-only effect; inactive = no such curve, though single readings can be large or run the other way. A potency beside an inconclusive call is a rough fit, not a confirmed value.
# Assay: qHTS for Inhibitors of TGF-b; note: nearly all actives have a fitted effect of over 65% in size
# Details: HepG2 CAGA-GFP TGF-b/SMAD3 reporter, GFP fluorescence, 18 h, TGF-beta stimulated, 500 pg/mL final; series mostly up to 46.1 µM; activity, negative = inhibition: at the top concentration
# How it was run: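 Per well, imaged GFP fluorescence of HEPG2 CAGA-GFP cells gives the signal; cells get compound, then TGF-beta (500 pg/mL final), 18 h at 37 degrees C; %Activity versus -TGF-beta and +DMSO controls.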
# % is set by controls: 0 for no effect and ±100 for the full control effect; potency is the fitted concentration of half-maximal effect; tags give direction and shape of the fitted curve.
Compound,Potency,"activity, negative = inhibition"
Cn1nnnc1Sc1ncnc2scc(-c3cccs3)c12,"inconclusive: 10 µM [inhibitor, partial curve, poor fit]",
CC1=C(C(=O)Nc2ccccc2C)C(c2ccco2)n2ncnc2N1 (stereo not given),"inconclusive: 28.2 µM [inhibitor, single point]",
CN(CCc1ccccc1)C(=O)c1cccc(NC(=O)Cc2cccc(NC(=O)C3CCCN(C(=O)C4CCCCC4)C3)c2)c1 (stereo not given),"inconclusive: 12.6 µM [inhibitor, partial curve, poor fit]",
CCC(C(=O)Nc1ccc2c(c1)OCCO2)n1nnc2ccccc2c1=O (stereo not given),,inactive: -11.3%
CC(/C=N/n1c(COc2ccccc2)n[nH]c1=S)=C\c1ccco1,"inconclusive: 25.1 µM [inhibitor, single point]",
Cc1ccc(-c2cc(-c3ccccc3Cl)[nH]n2)c(O)c1,"inconclusive: 35.5 µM [inhibitor, single point]",
O=C(Nc1nnc(S(=O)(=O)N2CCCCC2)s1)c1ccc(F)cc1,,inactive: -6.88%
O=C(CCCc1nc(-c2ccccc2)no1)Nc1cc(C(F)(F)F)cc(C(F)(F)F)c1,"inconclusive: 14.1 µM [inhibitor, single point]",
CCCOC(=O)C[N+](C)(C)CCOC1CC2CCC1(C)C2(C)C (stereo not given),,inactive: -0.522%
COc1ccc(C#Cc2cccc(-c3nc(C(=O)N4CCN(C)CC4)cc4c3[C@H](CCO)N(S(=O)C(C)(C)C)C4)c2)cc1OC (stereo not given in full),"inconclusive: 11.2 µM [inhibitor, partial curve, poor fit]",
COc1ccc(C(=O)OCC(=O)N2CCc3ccccc32)cc1S(=O)(=O)N1CCOCC1,"inconclusive: 0.316 µM [inhibitor, full curve, poor fit]",
CCN(Cc1ccccc1)S(=O)(=O)c1ccc(C(=O)N(CCCN(C)C)c2nc3cc(OC)ccc3s2)cc1,"inconclusive: 35.5 µM [inhibitor, single point]",
Fc1cccc(Cc2c(-c3cccc(Cl)c3)nc3ccc(Cl)cn23)c1,"inconclusive: 12.6 µM [inhibitor, partial curve, poor fit]",
CCC1C(=O)CC(c2ccc([N+](=O)[O-])cc2)NC1c1ccc([N+](=O)[O-])cc1 (stereo not given),"inconclusive: 8.91 µM [inhibitor, partial curve, poor fit]",
CC(=O)C[C@H]1c2cc(C(F)(F)F)ccc2S(=O)(=O)N1c1ccccc1,"inconclusive: 35.5 µM [inhibitor, single point] and inconclusive: 20 µM [inhibitor, single point]",
OCCNCc1cc(Br)ccc1OCc1ccccc1,,inactive: 5.52%
COc1cccc(CNC(=O)CCCN2C(=O)CSc3c2c(C)nn3-c2ccccc2)c1OC,"inconclusive: 3.55 µM [inhibitor, partial curve, poor fit]",
CN(C)CCCNc1cc(O)c2ncccc2c1,"inconclusive: 3.98 µM [inhibitor, partial curve, poor fit]",
Cc1ccc(NC(=O)c2cc(S(=O)(=O)N3CCCCC3)ccc2N2CCOCC2)cc1,,inactive: 8.16%
O=C(Nc1ccccc1)Nc1csc2ccccc12,"inconclusive: 35.5 µM [inhibitor, single point]",
COc1ccc(Nc2sc(C(=O)c3ccccc3)c(N)c2C(=O)Nc2cc(C)ccc2C)c(OC)c1,"inconclusive: 35.5 µM [inhibitor, single point]",
S=C1CCSc2ccc(Cl)cc2N1,,inactive: 14.1%

Compound,Potency,"activity, negative = inhibition"
Cc1ccc(OCCC(=O)OCC(=O)N2CCN(S(=O)(=O)c3ccc(Cl)cc3)CC2)cc1,,inactive: -10.3%
O=C(COc1ccc(Br)cc1Cl)NCCCN1CCOCC1,,inactive: 0.929%
O=[N+]([O-])c1ccc(Cl)c(-c2ccc(/C=N/c3c(-c4ccco4)nc4ccccn34)o2)c1,,inactive: -5.21%
O=[N+]([O-])c1ccccc1N/N=C/c1c[nH]c2ccccc12,"inconclusive: 6.31 µM [inhibitor, full curve, poor fit]",
OCCN(CCCn1c(-c2ccncc2)nc2ccccc21)c1nc(CN2CCCCC2)cs1,"inconclusive: 3.98 µM [inhibitor, full curve]",
O=C(NCc1ccccc1F)C1CCCN(C(=O)NC2CCCCC2)C1 (stereo not given),,inactive: -4.57%
CCC(C)(C)NC(=O)c1cc([N+](=O)[O-])ccc1N1CCOCC1,,inactive: 5.08%
C[C@H](CO)N1C[C@H](C)[C@H](CN(C)S(=O)(=O)c2ccc(Cl)cc2)OCc2cnnn2CCCC1=O,,inactive: 9.11%
Cc1ccc(NC(=O)c2cc(S(=O)(=O)NCCC3=CCCCC3)ccc2F)cc1C,"inconclusive: 35.5 µM [inhibitor, single point]",
COc1ccccc1C(=O)C1CCCN(Cc2cn[nH]c2C2CCCCC2)C1 (stereo not given),,inactive: -4.22%
Cn1c(NCc2ccccc2F)nc2cc(-c3ccsc3)sc2c1=O,"inconclusive: 14.1 µM [inhibitor, partial curve, poor fit]",
CCCCn1c(O)c(N=Nc2ccccc2O)c2ccccc21,"inconclusive: 8.91 µM [inhibitor, single point]",
CC(=O)c1sc(NC(=O)CCCc2nc3ccccc3c(=O)[nH]2)nc1-c1ccccc1,active: 20 µM,
COc1cccc(NC(=O)CN(C)C(=O)CC(C)c2ccccc2)c1 (stereo not given),,inactive: 6.2%
COc1ccc(NS(=O)(=O)c2csc(C(N)=O)c2)cc1,,inactive: 0.765%
CCN(CC)c1ccc(/C=C/c2c(C)cnc3ccccc23)cc1,"inconclusive: 35.5 µM [inhibitor, single point]",
COc1ccc(N/C(=N\c2nc(C)cc(C)n2)NC(=O)C(C)C)cc1OC,"inconclusive: 35.5 µM [inhibitor, single point]",
OCCN1CCN(c2ncnc3c2c(-c2ccccc2)cn3-c2ccc(Br)cc2)CC1,,inactive: 1.35%
Cc1ccc(S(=O)(=O)N(C)c2ccc(C(=O)N3CCc4ccccc4C3)cc2)cc1,"inconclusive: 35.5 µM [inhibitor, single point]",
CC1CCN(S(=O)(=O)c2ccc3nc(NCc4ccc(F)cc4)ccc3c2)CC1,active: 12.6 µM,
Cc1cccc(N(CC(=O)N=Nc2c(O)[nH]c3ccccc23)S(C)(=O)=O)c1C,"inconclusive: 7.08 µM [inhibitor, partial curve, poor fit]",
CCCCc1cc(=O)oc2c(C)c(OCc3nn[nH]n3)ccc12,"inconclusive: 2.82 µM [inhibitor, partial curve, poor fit]",

Compound,Potency,"activity, negative = inhibition"
CCOC(=O)c1cnc(-n2nc(C)cc2C)nc1Oc1ccccc1F,"inconclusive: 11.2 µM [inhibitor, single point]",
Cc1ccc(-c2csc(=S)n2CC(=O)OCC(=O)NCc2ccco2)cc1,,inactive: 9.49%
O=C(CSCc1ccc(Cl)cc1)Nc1ccc(S(=O)(=O)N2CCCCCC2)cc1,"inconclusive: 15.8 µM [inhibitor, single point]",
CCOC(=O)CSC1=C(C#N)C(c2ccc(C)s2)CC(=O)N1 (stereo not given),"inconclusive: 35.5 µM [inhibitor, single point]",
COc1ccc(C(=O)NC(C(=O)N2CCN(c3ccccc3O)CC2)C(C)C)cc1 (stereo not given),"inconclusive: 35.5 µM [inhibitor, single point]",
CCc1cc(=O)oc2cc(OC(C)C(=O)NCCCn3ccnc3)ccc12 (stereo not given),"inconclusive: 6.31 µM [inhibitor, single point]",
CCc1ccc(/C=C2\SC(=S)N(CCCC(=O)Nc3ccccc3C(=O)O)C2=O)cc1,,inactive: -1.94%
NS(=O)(=O)c1ccc(CCNC(=O)C(=O)C2C(=O)Nc3ccccc32)cc1 (stereo not given),"inconclusive: 12.6 µM [inhibitor, single point]",
Cc1nn2c(=O)cc(COC(=O)c3ccc(NC(=O)COc4ccc(Cl)cc4)cc3)nc2s1,"inconclusive: 10 µM [inhibitor, partial curve, poor fit]",
Cn1c(C(=O)N2CCCCCC2)cc2c(=O)n(C)c3ccccc3c21,"inconclusive: 7.08 µM [inhibitor, partial curve, poor fit]",
CCOC(=O)c1c(NC(=O)CN2C(=O)NC3(CCCC3)C2=O)sc(C)c1CC,,inactive: 21.4%
COc1ccc(OC)c(CNC(=O)c2cc3ccc4cccnc4c3[nH]2)c1,"inconclusive: 35.5 µM [inhibitor, single point]",
CCOC(=O)C1(CCOC)CCN(C/C=C/c2ccccc2OC)CC1,"inconclusive: 35.5 µM [inhibitor, single point]",
Cc1oc(-c2ccc(Cl)cc2)nc1CN1CCC(C(=O)NCCCN2CCCC(C)C2)CC1 (stereo not given),"inconclusive: 12.6 µM [inhibitor, single point]",
Clc1ccccc1OCCCOc1cccc2cccnc12,"inconclusive: 12.6 µM [inhibitor, partial curve, poor fit]",
CCCCCn1c(CCCNC(=O)c2cccc(C)c2)nc2ccccc21,"inconclusive: 28.2 µM [inhibitor, single point]",
COc1ccc(C(=O)N/C(=C\c2ccc3c(c2)OCO3)C(=O)NCCc2nc3ccccc3[nH]2)cc1,"inconclusive: 6.31 µM [inhibitor, single point]",
COC(=O)c1ccccc1NC(=S)NC(NC(=O)COc1ccccc1)C(Cl)(Cl)Cl (stereo not given),"inconclusive: 15.8 µM [inhibitor, single point]",
CN(C)CCCNC(CC(=O)Nc1cccc([N+](=O)[O-])c1)C(=O)O (stereo not given),"inconclusive: 5.62 µM [inhibitor, single point]",
C[C@@H](C(=O)NC1CCN(Cc2ccccc2)CC1)N1C(=O)N2CCc3c([nH]c4ccccc34)[C@@]2(C)C1=O,"inconclusive: 35.5 µM [inhibitor, single point]",
O=C(Nc1ccc(Cl)cc1)c1nc[nH]c1C(=O)NCc1ccccc1,"inconclusive: 35.5 µM [inhibitor, partial curve, poor fit]",
